# From US20210238308A1 (Chugai, published 2021)
# T1: PRYSPRY domain of mouse TRIM21 with N-terminal 6xHis tag (mouse)
# T1 construct: Expressed in E. coli; also called mTRIM21; mouse TRIM21.PRYSPRY
# T1 chain: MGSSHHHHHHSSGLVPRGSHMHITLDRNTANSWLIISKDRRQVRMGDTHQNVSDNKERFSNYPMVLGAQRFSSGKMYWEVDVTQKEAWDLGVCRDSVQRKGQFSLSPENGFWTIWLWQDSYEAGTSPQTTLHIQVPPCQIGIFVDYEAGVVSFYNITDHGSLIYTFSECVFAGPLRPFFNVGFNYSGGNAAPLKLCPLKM
# T2: PRYSPRY domain of human TRIM21 with N-terminal 6xHis tag (human)
# T2 construct: Expressed in E. coli; also called hTRIM21; human TRIM21.PRYSPRY
# T2 chain: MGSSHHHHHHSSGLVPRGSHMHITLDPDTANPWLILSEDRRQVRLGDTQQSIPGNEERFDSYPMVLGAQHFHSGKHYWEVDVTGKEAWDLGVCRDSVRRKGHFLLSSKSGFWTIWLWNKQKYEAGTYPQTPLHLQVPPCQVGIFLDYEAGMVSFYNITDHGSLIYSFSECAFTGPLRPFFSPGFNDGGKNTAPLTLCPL
# B1: MRAH-G1d/MRAL-KT0 M428P (antibody, human IgG1, kappa)
# heavy: QVQLQESGPGLVRPSQTLSLTCTVSGYSITSDHAWSWVRQPPGRGLEWIGYISYSGITTYNPSLKSRVTMLRDTSKNQFSLRLSSVTAADTAVYYCARSLARTTAMDYWGQGSLVTVSS[human IgG1 constant region with M428P (EU numbers) omitted here]
# light: DIQMTQSPSSLSASVGDRVTITCRASQDISSYLNWYQQKPGKAPKLLIYYTSRLHSGVPSRFSGSGSGTDFTFTISSLQPEDIATYYCQQGNTLPYTFGQGTKVEIKRTVAAPSVFIFPPSDEQLKSGTASVVCLLNNFYPREAKVQWKVDNALQSGNSQESVTEQDSKDSTYSLSSTLTLSKADYEKHKVYACEVTHQGLSSPVTKSFNRGEC
# notes: copies: 2 + 2
# B2: MRAH-G1d/MRAL-KT0 L432W (antibody, human IgG1, kappa)
# heavy: QVQLQESGPGLVRPSQTLSLTCTVSGYSITSDHAWSWVRQPPGRGLEWIGYISYSGITTYNPSLKSRVTMLRDTSKNQFSLRLSSVTAADTAVYYCARSLARTTAMDYWGQGSLVTVSS[human IgG1 constant region with L432W (EU numbers) omitted here]
# light: B1 light
# notes: copies: 2 + 2
# B3: MRAH-G1d/MRAL-KT0 M428N (antibody, human IgG1, kappa)
# heavy: QVQLQESGPGLVRPSQTLSLTCTVSGYSITSDHAWSWVRQPPGRGLEWIGYISYSGITTYNPSLKSRVTMLRDTSKNQFSLRLSSVTAADTAVYYCARSLARTTAMDYWGQGSLVTVSS[human IgG1 constant region with M428N (EU numbers) omitted here]
# light: B1 light
# notes: copies: 2 + 2
# B4: MRAH-G1d/MRAL-KT0 N315H (antibody, human IgG1, kappa)
# heavy: QVQLQESGPGLVRPSQTLSLTCTVSGYSITSDHAWSWVRQPPGRGLEWIGYISYSGITTYNPSLKSRVTMLRDTSKNQFSLRLSSVTAADTAVYYCARSLARTTAMDYWGQGSLVTVSS[human IgG1 constant region with N315H (EU numbers) omitted here]
# light: B1 light
# notes: copies: 2 + 2
# B5: MRAH-G1d/MRAL-KT0 M428D (antibody, human IgG1, kappa)
# heavy: QVQLQESGPGLVRPSQTLSLTCTVSGYSITSDHAWSWVRQPPGRGLEWIGYISYSGITTYNPSLKSRVTMLRDTSKNQFSLRLSSVTAADTAVYYCARSLARTTAMDYWGQGSLVTVSS[human IgG1 constant region with M428D (EU numbers) omitted here]
# light: B1 light
# notes: copies: 2 + 2
# B6: MRAH-G1d/MRAL-KT0 N315E (antibody, human IgG1, kappa)
# heavy: QVQLQESGPGLVRPSQTLSLTCTVSGYSITSDHAWSWVRQPPGRGLEWIGYISYSGITTYNPSLKSRVTMLRDTSKNQFSLRLSSVTAADTAVYYCARSLARTTAMDYWGQGSLVTVSS[human IgG1 constant region with N315E (EU numbers) omitted here]
# light: B1 light
# notes: copies: 2 + 2
# B7: MRAH-G1d/MRAL-KT0 M428T (antibody, human IgG1, kappa)
# heavy: QVQLQESGPGLVRPSQTLSLTCTVSGYSITSDHAWSWVRQPPGRGLEWIGYISYSGITTYNPSLKSRVTMLRDTSKNQFSLRLSSVTAADTAVYYCARSLARTTAMDYWGQGSLVTVSS[human IgG1 constant region with M428T (EU numbers) omitted here]
# light: B1 light
# notes: copies: 2 + 2
# B8: MRAH-G1d/MRAL-KT0 N315I (antibody, human IgG1, kappa)
# heavy: QVQLQESGPGLVRPSQTLSLTCTVSGYSITSDHAWSWVRQPPGRGLEWIGYISYSGITTYNPSLKSRVTMLRDTSKNQFSLRLSSVTAADTAVYYCARSLARTTAMDYWGQGSLVTVSS[human IgG1 constant region with N315I (EU numbers) omitted here]
# light: B1 light
# notes: copies: 2 + 2
# B9: MRAH-G1d/MRAL-KT0 N315G (antibody, human IgG1, kappa)
# heavy: QVQLQESGPGLVRPSQTLSLTCTVSGYSITSDHAWSWVRQPPGRGLEWIGYISYSGITTYNPSLKSRVTMLRDTSKNQFSLRLSSVTAADTAVYYCARSLARTTAMDYWGQGSLVTVSS[human IgG1 constant region with N315G (EU numbers) omitted here]
# light: B1 light
# notes: copies: 2 + 2
# B10: MRAH-G1d/MRAL-KT0 L432V (antibody, human IgG1, kappa)
# heavy: QVQLQESGPGLVRPSQTLSLTCTVSGYSITSDHAWSWVRQPPGRGLEWIGYISYSGITTYNPSLKSRVTMLRDTSKNQFSLRLSSVTAADTAVYYCARSLARTTAMDYWGQGSLVTVSS[human IgG1 constant region with L432V (EU numbers) omitted here]
# light: B1 light
# notes: copies: 2 + 2
# B11: MRAH-G1d/MRAL-KT0 M428K (antibody, human IgG1, kappa)
# heavy: QVQLQESGPGLVRPSQTLSLTCTVSGYSITSDHAWSWVRQPPGRGLEWIGYISYSGITTYNPSLKSRVTMLRDTSKNQFSLRLSSVTAADTAVYYCARSLARTTAMDYWGQGSLVTVSS[human IgG1 constant region with M428K (EU numbers) omitted here]
# light: B1 light
# notes: copies: 2 + 2
# B12: MRAH-G1d/MRAL-KT0 M428A (antibody, human IgG1, kappa)
# heavy: QVQLQESGPGLVRPSQTLSLTCTVSGYSITSDHAWSWVRQPPGRGLEWIGYISYSGITTYNPSLKSRVTMLRDTSKNQFSLRLSSVTAADTAVYYCARSLARTTAMDYWGQGSLVTVSS[human IgG1 constant region with M428A (EU numbers) omitted here]
# light: B1 light
# notes: copies: 2 + 2
# B13: MRAH-G1d/MRAL-KT0 M428I (antibody, human IgG1, kappa)
# heavy: QVQLQESGPGLVRPSQTLSLTCTVSGYSITSDHAWSWVRQPPGRGLEWIGYISYSGITTYNPSLKSRVTMLRDTSKNQFSLRLSSVTAADTAVYYCARSLARTTAMDYWGQGSLVTVSS[human IgG1 constant region with M428I (EU numbers) omitted here]
# light: B1 light
# notes: copies: 2 + 2
# B14: MRAH-G1d/MRAL-KT0 M428S (antibody, human IgG1, kappa)
# heavy: QVQLQESGPGLVRPSQTLSLTCTVSGYSITSDHAWSWVRQPPGRGLEWIGYISYSGITTYNPSLKSRVTMLRDTSKNQFSLRLSSVTAADTAVYYCARSLARTTAMDYWGQGSLVTVSS[human IgG1 constant region with M428S (EU numbers) omitted here]
# light: B1 light
# notes: copies: 2 + 2
# Biological target: T1, PRYSPRY domain of mouse TRIM21 with …
# Assay: SPR, Protein L capture
row,mTRIM21 binding level ratio (variant/control antibody),Binder
1,1.8,B1
2,0.139,B2
3,2.75,B3
4,2.39,B4
5,2.7,B5
6,1.19,B6
7,3.41,B7
8,2.5,B8
9,2.66,B9
10,2.67,B10
11,0.878,B11
12,2.25,B12
13,2,B13
14,3.24,B14

# Biological target: T2, PRYSPRY domain of human TRIM21 with …
# Assay: SPR, Protein L capture
row,hTRIM21 binding level ratio (variant/control antibody),Binder
1,0.476,B1
2,0.297,B2
3,0.891,B3
4,0.88,B4
5,1.27,B5
6,0.61,B6
7,0.951,B7
8,1.25,B8
9,1.09,B9
10,0.848,B10
11,0.66,B11
12,0.593,B12
13,0.935,B13
14,0.826,B14

# Biological target: T3, human FcRn (human, UniProt P55899 part only; P61769 part only, limits assumed)
# T3 construct: also called hFcRn
# Assay: SPR, Protein L capture
row,hFcRn binding level ratio (variant/control antibody),Binder
1,0,B1
2,0.25,B2
3,0.52,B3
4,0.41,B4
5,0.24,B5
6,0.4,B6
7,0.41,B7
8,0.27,B8
9,0.16,B9
10,0.17,B10
11,0.31,B11
12,0.02,B12
13,0,B13
14,0.19,B14
